Bounds are passed on as bounds.

For experiment [1], the system named is Puccinia recondita f. sp. tritici. Put plainly: Example B13 Puccinia recondita f. sp. tritici/wheat/leaf disc preventative (brown rust). The settings on record: foliar, wheat leaf disc preventative, compared to untreated control. As for the experimental part: Puccinia recondita f. Sp. Tritici/Wheat/Leaf Disc Preventative (Brown Rust)
Wheat leaf segments cv. Kanzler are placed on agar in multiwell plates (24-well format) and sprayed with the formulated test compound diluted in water. The leaf disks are inoculated with a spore suspension of the fungus 1 day after application. The inoculated leaf segments are incubated at 19° C. and 75% rh under a light regime of 12 h light/12 h darkness in a climate cabinet and the activity of a compound is assessed as percent disease control compared to untreated when an appropriate level of disease damage appears in untreated check leaf segments (7-9 days after application).

For experiment [2], the system named is Blumeria graminis f. sp. tritici (Erysiphe graminis f. sp. tritici). Put plainly: Example B4 Blumeria graminis f. sp. tritici/wheat/leaf disc preventative (powdery mildew). The settings on record: foliar, read-out: control of Blumeria graminis f. sp. tritici. The procedure: Blumeria graminis f. Sp. Tritici (Erysiphe graminis f. Sp. Tritici)/Wheat/Leaf Disc Preventative (Powdery Mildew on Wheat)
Wheat leaf segments cv. Kanzler are placed on agar in a multiwell plate (24-well format) and sprayed with the formulated test compound diluted in water. The leaf disks are inoculated by shaking powdery mildew infected plants above the test plates 1 day after application. The inoculated leaf disks are incubated at ° C. and 60% rh under a light regime of 24 h darkness followed by 12 h light/12 h darkness in a climate chamber and the activity of a compound is assessed as percent disease control compared to untreated when an appropriate level of disease damage appears on untreated check leaf segments (6-8 days after application).

Regarding `COCC(=O)N(c1cc(F)nc(F)c1)c1nc(C(=O)NC2CCC23CCCC3)c(C)s1` (centres unmarked) [I.c.600, 2-[(2,6-difluoro-4-pyridyl)-(2-methoxyacetyl)amino]-5-methyl-N-spiro[3.4]octan-3-yl-thiazole-4-carboxamide], the pest or weed control at 200 ppm in experiment [1] and in experiment [2] was ≥ 80% each time.
